Measurements published in the supplement of paper PMC9446081.
The campaign covered roughly 39,000 compounds. About 220 (0.56%) showed activity. The list shows a part of the results.

tested on: Escherichia coli K-12 BW25113; test: relative growth (OD600 normalised to plate interquartile mean) (fraction); higher = less growth inhibition, active = 0.2 or less; details: 50 µM; LB; incubation time: overnight (16-24 h)
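Also: static incubation at 37 °C against the wild-type strain, values averaged over two biological replicates.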

Row | Structure (SMILES) | relative growth
1 | CN1CCO[C@H]2CCN(C(=O)c3ccn(C)n3)C[C@H]21 | inactive: 1.01
2 | Cc1ccc(S(=O)(=O)Nc2ccc3c(c2)CC(=O)N([C@@H](C)CO)C[C@H](C)[C@@H](CN(C)C(=O)NC(C)C)O3)cc1 | inactive: 0.976
3 | C[C@@H]1CCCCO[C@@H](CN(C)S(=O)(=O)c2cccs2)[C@H](C)CN([C@@H](C)CO)C(=O)c2cc(NC(=O)Cc3ccccc3)ccc2O1 | inactive: 1.03
4 | C[C@@H](NC(=O)C[C@@H]1CC[C@H](NC(=O)CN2CCOCC2)[C@@H](CO)O1)c1ccccc1 | inactive: 0.991
5 | C[C@@H]1CN([C@@H](C)CO)C(=O)c2cc(NC(=O)Nc3ccccc3)ccc2O[C@@H](C)CCCCO[C@H]1CN(C)C(=O)c1ccccc1 | inactive: 1.05
6 | C[C@@H]1CN([C@H](C)CO)C(=O)c2cccc(NC(=O)Nc3ccc(C(F)(F)F)cc3)c2O[C@H]1CN(C)C(=O)Nc1cccc2ccccc12 | inactive: 0.758
7 | CC(=O)N1CCNCC1 | inactive: 0.984
8 | COc1cccc(-c2ccc3c(c2)O[C@@H](CN(C)C(=O)C2CC2)[C@H](C)CN([C@H](C)CO)S3(=O)=O)c1 | inactive: 1
9 | O=c1nc2[nH][nH]cc-2c(=O)[nH]1 | inactive: 1
10 | C[C@H]1CN([C@@H](C)CO)C(=O)Cc2cc(NC(=O)Cc3ccccc3)ccc2O[C@@H]1CN(C)Cc1ccc(Oc2ccccc2)cc1 | inactive: 0.992
11 | O=C1O[C@H](c2ccccc2)[C@H](c2ccccc2)N2[C@H]1[C@@H](C(=O)O)[C@]1(C(=O)Nc3ccc(C#CC4=CCCCC4)cc31)[C@H]2c1ccccc1OCCO | inactive: 0.969
12 | COc1ccc(/C=C/CN2CCC(C(=O)N[C@@H](c3ccc(F)cc3)c3ccc4ccccc4n3)CC2)cc1 | inactive: 1.01
13 | COc1ccc(NC(=O)N(C)C[C@@H]2OCCCC[C@@H](C)Oc3ccc(NS(=O)(=O)c4ccc(OC)cc4)cc3C(=O)N([C@H](C)CO)C[C@@H]2C)cc1 | inactive: 0.981
14 | COc1ccc(NC(=O)Nc2ccc3c(c2)C(=O)N([C@@H](C)CO)C[C@@H](C)[C@H](CN(C)C(=O)Nc2ccc(F)cc2)OCCCC[C@H](C)O3)cc1 | inactive: 1.04
15 | COc1ccc(CCNC(=O)[C@@]2(Sc3ccc(C)cc3)CC(=O)N(Cc3ccccc3C(F)(F)F)[C@@H]2c2ccc(CO)cc2)cc1 | inactive: 0.987
16 | C[C@H](CO)N1C[C@H](C)[C@@H](CN(C)S(=O)(=O)c2ccccc2)Oc2cc(Br)ccc2S1(=O)=O | inactive: 1.03
17 | C[C@@H]1CN([C@H](C)CO)C(=O)CCCn2nncc2CO[C@@H]1CN(C)C(=O)Nc1ccc(N2CCCCC2)cc1 | inactive: 1.03
18 | C[C@@H]1CN([C@@H](C)CO)C(=O)c2cc(NS(=O)(=O)c3cn(C)cn3)ccc2O[C@@H](C)CCCCO[C@@H]1CN(C)C | inactive: 0.955
19 | NC(CO)(CO)CO | inactive: 1.12
20 | COc1ccc([Si](C)(C)[C@H]2[C@H](CCO)O[C@@]3(C(=O)N(Cc4cccc(N(C=O)c5ccccc5)c4)c4ccccc43)[C@@H]2C)cc1 | inactive: 1.04

Row | Structure (SMILES) | relative growth
21 | Cc1ccc(S(=O)(=O)Nc2ccc3c(c2)C(=O)N([C@@H](C)CO)C[C@@H](C)[C@@H](CN(C)S(=O)(=O)c2cn(C)cn2)O3)cc1 | inactive: 1.01
22 | C[C@@H]1CN([C@@H](C)CO)C(=O)c2cc(NC(=O)Nc3cccc4ccccc34)ccc2O[C@@H]1CN(C)Cc1ccncc1 | inactive: 0.951
23 | Cc1ccc(S(=O)(=O)N(C)C[C@H]2Oc3ccc(NS(=O)(=O)c4ccc(F)cc4)cc3C(=O)N([C@H](C)CO)C[C@H]2C)cc1 | inactive: 1.03
24 | C=CC[C@H](CC(=O)NCCO)C(=O)N[C@@H](COC(=O)[C@H](CC=C)CC(=O)OC(C)(C)C)Cc1ccccc1 | inactive: 0.989
25 | C[C@H]1CCCCO[C@H](CN(C)C)[C@@H](C)CN([C@@H](C)CO)C(=O)c2cc(NC(=O)Nc3cccc4ccccc34)ccc2O1 | inactive: 0.96
26 | COc1ccc(S(=O)(=O)N(C)C[C@@H]2Oc3ccc(NC(=O)c4ccncc4)cc3C(=O)N([C@@H](C)CO)C[C@H]2C)cc1 | inactive: 1
27 | COc1ccc2c(c1)OCc1c-2oc2cc(OC)ccc12 | inactive: 0.93
28 | C[C@H]1CN([C@@H](C)CO)C(=O)c2cc(NC(=O)CCCCCC(=O)Nc3ccccc3N)ccc2O[C@@H]1CN(C)CC1CCCCC1 | inactive: 0.969
29 | O=C(C[C@H]1C[C@@H]2c3cc(NC(=O)NC4CCCC4)ccc3O[C@@H]2[C@H](CO)O1)NCc1ccc(Oc2ccccc2)cc1 | inactive: 1.02
30 | C[C@H]1CN([C@@H](C)CO)C(=O)Cc2cc(NC(=O)Nc3ccc(C(F)(F)F)cc3)ccc2O[C@@H]1CN(C)C(=O)Nc1ccccc1 | inactive: 0.982
31 | C[C@@H]1CCCCO[C@@H](CN(C)C(=O)C2CCCCC2)[C@@H](C)CN([C@@H](C)CO)C(=O)c2cc(NC(=O)Nc3ccc4c(c3)OCO4)ccc2O1 | inactive: 1.03
32 | COc1ccc(NC(=O)Nc2cccc3c2O[C@@H](CN(C)CC2CCCCC2)[C@@H](C)CN([C@@H](C)CO)C3=O)cc1 | inactive: 1
33 | NC(=O)NC1CCCCC1 | inactive: 0.973
34 | C[C@H](CO)N1C[C@H](C)[C@H](CN(C)C(=O)C2CCOCC2)Oc2ncc(-c3cccc(C#N)c3)cc2C1=O | inactive: 1.01
35 | c1c[nH]cn1 | inactive: 0.997
36 | C[C@@H]1CN([C@H](C)CO)C(=O)c2cc(NC(=O)NC3CCCCC3)ccc2O[C@@H](C)CCCCO[C@@H]1CN(C)Cc1ccc(Cl)c(Cl)c1 | inactive: 1.03
37 | C[C@@H]1CCCCO[C@H](CN(C)Cc2ccncc2)[C@@H](C)CN([C@H](C)CO)C(=O)c2cc(NC(=O)Cc3ccccc3)ccc2O1 | inactive: 1.02
38 | C[C@@H]1CN([C@H](C)CO)C(=O)c2cccc(NC(=O)Nc3cccc4ccccc34)c2O[C@H]1CN(C)S(=O)(=O)c1cccs1 | inactive: 0.991
39 | CC(=O)NCCCC[C@@H]1NC(=O)[C@@H]2C[C@H](C(=O)NCCCCCCNC(=O)CS)[C@H](c3ccc(O)cc3)N2C1=O | inactive: 1
